Experimental data reported in the supplement of paper PMC4604168 (melanoma cell lines).
The list shows a part of the results. Many values rest on one well or one pass, so single values are uncertain.

tested on: WM1745; test: cell count relative to DMSO control; melanoma cells; higher = more viable cells; conditions: library dose: standard library concentration; 72 h
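Further: cells treated in 1,536-well plates, then fixed and DAPI-stained, with nuclei counted from automated high-throughput microscope images.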

SMILES | cell count [%]
O=C(Nc1cc(C(F)(F)F)cc(C(F)(F)F)c1)c1cc(Cl)ccc1O + Nc1ncn([C@H]2C[C@H](O)[C@@H](CO)O2)c(=O)n1 [decitabine] (first compound 0.08 µM, partner dose 0.5 µM) | 77
O=C(Nc1ccccc1)c1cc([N+](=O)[O-])ccc1Cl + Cc1cc([N+](=O)[O-])ccc1NS(=O)(=O)c1cc(Cl)ccc1Cl [FH535] (first compound 10 µM, partner dose 5 µM) | 69
O=C(Nc1cc(C(F)(F)F)cc(C(F)(F)F)c1)c1cc(Cl)ccc1O + Nc1ccn([C@@H]2O[C@H](CO)[C@@H](O)C2(F)F)c(=O)n1 [gemcitabine] (first compound 0.08 µM, partner dose 0.002 µM) | 52
O=C(Nc1cc(C(F)(F)F)cc(C(F)(F)F)c1)c1cc(Cl)ccc1O + C=CCn1c(=O)c2cnc(Nc3ccc(N4CCN(C)CC4)cc3)nc2n1-c1cccc(C(C)(C)O)n1 [MK1775] (first compound 0.08 µM, partner dose 0.1 µM) | 80
Cn1nnc2c(C(N)=O)ncn2c1=O [temozolomide] + CCN(CC)CCCCNc1ncc2cc(-c3cc(OC)cc(OC)c3)c(NC(=O)NC(C)(C)C)nc2n1 [PD173074] (first compound 10 µM, partner dose 0.5 µM) | 73.4
O=C(O)[C@@H]1[O][Sb](=[O])([O][Sb]2(=[O])[O][C@H]([C@H](O)CO)[C@H](O)[C@H](C(=O)O)[O]2)[O][C@H]([C@H](O)CO)[C@@H]1O (some centres undefined) [stibogluconate] + Nc1ncn([C@H]2C[C@H](O)[C@@H](CO)O2)c(=O)n1 [decitabine] (first compound 10 µM, partner dose 0.5 µM) | 78.4
O=C(O)c1ccc2c(c1)nc(Nc1cccc(Cl)c1)c1ccncc12 + C=CCn1c(=O)c2cnc(Nc3ccc(N4CCN(C)CC4)cc3)nc2n1-c1cccc(C(C)(C)O)n1 [MK1775] (first compound 2 µM, partner dose 0.1 µM) | 57.4
O=C(Nc1cc(C(F)(F)F)cc(C(F)(F)F)c1)c1cc(Cl)ccc1O + Cn1c(Nc2ccc(C(F)(F)F)cc2)nc2cc(Oc3ccnc(-c4ncc(C(F)(F)F)[nH]4)c3)ccc21 [CHIR265] (first compound 0.08 µM, partner dose 0.4 µM) | 58.8
O=C(O)c1ccc2c(c1)nc(Nc1cccc(Cl)c1)c1ccncc12 + C#Cc1cccc(Nc2ncnc3cc(OCCOC)c(OCCOC)cc23)c1 [erlotinib] (first compound 2 µM, partner dose 4 µM) | 37.1
Cc1cc(N2CCOCC2)cc2[nH]c(-c3c(NC[C@@H](O)c4cccc(Cl)c4)cc[nH]c3=O)nc12 + Oc1cc(-c2nc(-c3ccccc3)[nH]c2-c2ccncc2)ccc1Cl [L779450] (first compound 1 µM, partner dose 1 µM) | 31.9
O=C(O)[C@@H]1[O][Sb](=[O])([O][Sb]2(=[O])[O][C@H]([C@H](O)CO)[C@H](O)[C@H](C(=O)O)[O]2)[O][C@H]([C@H](O)CO)[C@@H]1O (some centres undefined) [stibogluconate] + Cn1cncc1[C@@](N)(c1ccc(Cl)cc1)c1ccc2c(c1)c(-c1cccc(Cl)c1)cc(=O)n2C [tipifarnib] (first compound 10 µM, partner dose 0.05 µM) | 113
Cc1cc(N2CCOCC2)cc2[nH]c(-c3c(NC[C@@H](O)c4cccc(Cl)c4)cc[nH]c3=O)nc12 + CC(C)CCN1c2nc(Nc3cc(F)c(O)c(F)c3)ncc2N(C)C(=O)C1C [BID1870] (first compound 1 µM, partner dose 1 µM) | 48.3
O=C(Nc1ccccc1)c1cc([N+](=O)[O-])ccc1Cl + COc1ccc(-c2ccc3c(N4CCOCC4)nc(N4C[C@@H](C)O[C@@H](C)C4)nc3n2)cc1CO [KU0063794] (first compound 10 µM, partner dose 0.1 µM) | 73.3
Cn1nnc2c(C(N)=O)ncn2c1=O [temozolomide] + Cc1cc([N+](=O)[O-])ccc1NS(=O)(=O)c1cc(Cl)ccc1Cl [FH535] (first compound 10 µM, partner dose 5 µM) | 66.3
Cc1cc(N2CCOCC2)cc2[nH]c(-c3c(NC[C@@H](O)c4cccc(Cl)c4)cc[nH]c3=O)nc12 + Oc1nc(-c2ccc(C(F)(F)F)cc2)nc2c1CSCC2 [XAV939] (first compound 1 µM, partner dose 10 µM) | 44.5
O=C(Nc1cc(C(F)(F)F)cc(C(F)(F)F)c1)c1cc(Cl)ccc1O + CC(=O)O[C@@]12CO[C@@H]1C[C@H](O)[C@@]1(C)C(=O)[C@H](O)C3=C(C)[C@@H](OC(=O)[C@H](O)[C@@H](NC(=O)OC(C)(C)C)c4ccccc4)C[C@@](O)([C@@H](OC(=O)c4ccccc4)[C@H]21)C3(C)C [Docetaxel] (first compound 0.08 µM, partner dose 0.0005 µM) | 37.5
O=C(Nc1ccccc1)c1cc([N+](=O)[O-])ccc1Cl + O=S(=O)(c1ccccc1)N(CC(F)(F)F)c1ccc(C(O)(C(F)(F)F)C(F)(F)F)cc1 [T0901317] (first compound 10 µM, partner dose 7 µM) | 58.1
Cn1nnc2c(C(N)=O)ncn2c1=O [temozolomide] + Oc1nc(-c2ccc(C(F)(F)F)cc2)nc2c1CSCC2 [XAV939] (first compound 10 µM, partner dose 10 µM) | 72.2
O=C(Nc1cc(C(F)(F)F)cc(C(F)(F)F)c1)c1cc(Cl)ccc1O + C[C@]1(c2nc3c(C(N)=O)cccc3[nH]2)CCCN1 [Veliparib] (first compound 0.08 µM, partner dose 7 µM) | 84.9
